The list shows a part of the results.
B1: PhoQ; a variant is named by its letters at X, in order, P23837 (parent)
chain: MKKLLRLFFPLSLRVRFLLATAAVVLVLSLAYGMVALIGYSVSFDKTTFRLLRGESNLFYTLAKWENNKLHVELPENIDKQSPTMTLIYDENGQLLWAQRDVPWLMKMIQPDWLKSNGFHEIEADVNDTSLLLSGDHSIQQQLQEVREDDDDAEMTHSVAVNVYPATSRMPKLTIVVVDTIPVELKSSYMVWSWFIYVLSANLLLVIPLLWVAAWWSLRPIEALAKEVRELEEHNRELLNPATTRELTSLVRNLNRLLKSERERYDKYRTTLTDLTHSLKTPLXXLQXXLRSLRSEKMSVSDAEPVMLEQISRISQQIGYYLHRASMRGGTLLSRELHPVAPLLDNLTSALNKVYQRKGVNISLDISPEISFVGEQNDFVEVMGNVLDNACKYCLEFVEISARQTDEHLYIVVEDDGPGIPLSKREVIFDRGQRVDTLRPGQGVGLAVAREITEQYEGKIVAGESMLGGARMEVIFGRQHSAPKDE

Variants of: B1
Experiment: enrichment ratio after two sorts for PhoP signalling (ratio (wild type AVST 3.29)); higher = more functional
Conditions: with PhoP (E. coli)

Row | Variant | enrichment ratio
1 | FSEF | ≤ 0.25
2 | VSIC | ≤ 0.25
3 | PDWE | ≤ 0.25
4 | YEVI | ≤ 0.25
5 | SFVQ | ≤ 0.25
6 | YTHD | ≤ 0.25
7 | PTAS | ≤ 0.25
8 | MSDV | ≤ 0.25
9 | KFGL | ≤ 0.25
10 | TKMQ | ≤ 0.25
11 | HVST | ≤ 0.25
12 | AFAP | ≤ 0.25
13 | KGMG | ≤ 0.25
14 | EYTT | ≤ 0.25
15 | KVAW | ≤ 0.25
16 | ILPN | ≤ 0.25
17 | WPCW | ≤ 0.25
18 | RDDW | ≤ 0.25
19 | AARP | ≤ 0.25
20 | CLSW | ≤ 0.25
21 | YLWP | ≤ 0.25
22 | LCMM | 26.9
23 | LMCN | ≤ 0.25
24 | KSQY | ≤ 0.25

Row | Variant | enrichment ratio
25 | MCSI | 12.5
26 | LNNP | ≤ 0.25
27 | HGRN | ≤ 0.25
28 | TAYD | ≤ 0.25
29 | RVDM | ≤ 0.25
30 | VTWC | ≤ 0.25
31 | PVTS | ≤ 0.25
32 | MAFI | 8.07
33 | LVIT | ≤ 0.25
34 | AACL | 11.3
35 | AHWY | ≤ 0.25
36 | IKKP | ≤ 0.25
37 | EQKR | ≤ 0.25
38 | AQFW | ≤ 0.25
39 | FQNN | ≤ 0.25
40 | QQCF | ≤ 0.25
41 | QNNI | ≤ 0.25
42 | QCMF | ≤ 0.25
43 | ADRG | ≤ 0.25
44 | TSDH | 6.53
45 | KMTR | ≤ 0.25
46 | YFWF | ≤ 0.25
47 | TSTW | ≤ 0.25
48 | IQLL | 0.329

Row | Variant | enrichment ratio
49 | DWWH | ≤ 0.25
50 | FQMR | ≤ 0.25
51 | RIES | ≤ 0.25
52 | QHTG | ≤ 0.25
53 | RGEL | ≤ 0.25
54 | EDYP | ≤ 0.25
55 | RSMK | ≤ 0.25
56 | GIRP | ≤ 0.25
57 | PRHG | ≤ 0.25
58 | VVGM | ≤ 0.25
59 | FIQI | ≤ 0.25
60 | NDDV | ≤ 0.25
61 | FLQV | ≤ 0.25
62 | WWHF | ≤ 0.25
63 | HNCW | ≤ 0.25
64 | QVTK | ≤ 0.25
65 | LGRD | ≤ 0.25
66 | NPNP | ≤ 0.25
67 | LVYC | ≤ 0.25
68 | AEVS | 16.2
69 | ECLT | ≤ 0.25
70 | QFTS | ≤ 0.25
71 | YMDY | ≤ 0.25
72 | MIKH | ≤ 0.25

Row | Variant | enrichment ratio
73 | ESPN | ≤ 0.25
74 | KRHC | ≤ 0.25
75 | RLRN | ≤ 0.25
76 | MHCI | ≤ 0.25
77 | WVWH | ≤ 0.25
78 | VNVL | 1.76
79 | LTGY | ≤ 0.25
80 | LNLH | ≤ 0.25
81 | NITV | ≤ 0.25
82 | TESF | 11.5
83 | TIQH | 12.6
84 | EGHY | ≤ 0.25
85 | FKRY | ≤ 0.25
86 | IDGA | ≤ 0.25
87 | IRFR | ≤ 0.25
88 | SKVE | 0.353
89 | AMVC | ≤ 0.25
90 | TNDV | ≤ 0.25
91 | IAGF | ≤ 0.25
92 | VPRC | ≤ 0.25
93 | GLFE | ≤ 0.25
94 | FNEH | ≤ 0.25
95 | SFAK | ≤ 0.25
96 | MDWV | ≤ 0.25

Row | Variant | enrichment ratio
97 | FRTE | ≤ 0.25
98 | SRCS | ≤ 0.25
99 | WQLK | ≤ 0.25
100 | GHLH | ≤ 0.25
101 | ERHM | ≤ 0.25
102 | VAQS | ≤ 0.25
103 | RTKW | ≤ 0.25
104 | FLYW | ≤ 0.25
105 | TLTR | ≤ 0.25
106 | SVAF | 9.78
107 | ADPC | ≤ 0.25
108 | SSTH | 6.16
109 | GMPW | ≤ 0.25
110 | NCLN | ≤ 0.25
111 | VWHV | ≤ 0.25
112 | VTDN | ≤ 0.25
113 | QGPE | ≤ 0.25
114 | ENQT | ≤ 0.25
115 | HGTE | ≤ 0.25
116 | MQGA | ≤ 0.25
117 | PELY | ≤ 0.25
118 | QQIT | ≤ 0.25
119 | MTAQ | 3.04
120 | ITVG | ≤ 0.25

Row | Variant | enrichment ratio
121 | DTRV | ≤ 0.25
122 | TGHN | 5.44
123 | MASH | ≤ 0.25
124 | ATTL | 9.83
125 | ISYT | ≤ 0.25
126 | PGIK | ≤ 0.25
127 | FRKA | ≤ 0.25
128 | KQDG | ≤ 0.25
129 | HMSI | ≤ 0.25
130 | DHWG | ≤ 0.25
131 | MEIT | 1.69
132 | KTDR | ≤ 0.25
133 | WFYF | ≤ 0.25
134 | DQGR | ≤ 0.25
135 | KCGR | ≤ 0.25
136 | KNDM | ≤ 0.25
137 | MERL | ≤ 0.25
138 | ISHQ | ≤ 0.25
139 | NKVK | ≤ 0.25
140 | DSED | ≤ 0.25
141 | WLFG | ≤ 0.25
142 | SFEI | ≤ 0.25
143 | KRHA | ≤ 0.25
144 | FFGW | ≤ 0.25

Row | Variant | enrichment ratio
145 | HSMP | ≤ 0.25
146 | GEKL | ≤ 0.25
147 | KNYV | ≤ 0.25
148 | GPFV | ≤ 0.25
149 | GWQY | ≤ 0.25
150 | KAVD | ≤ 0.25
151 | GGQY | ≤ 0.25
152 | RERF | ≤ 0.25
153 | KLLD | ≤ 0.25
154 | KCCM | ≤ 0.25
155 | FNAH | ≤ 0.25
156 | WTLY | ≤ 0.25
157 | NAED | ≤ 0.25
158 | PKMW | ≤ 0.25
159 | LSET | ≤ 0.25
160 | SPTC | ≤ 0.25
161 | EIPI | ≤ 0.25
162 | ECVS | ≤ 0.25
163 | HYNP | ≤ 0.25
164 | LQIC | ≤ 0.25
165 | STTD | ≤ 0.25
166 | MKLY | ≤ 0.25
167 | LPDA | ≤ 0.25
168 | ARKL | ≤ 0.25

Row | Variant | enrichment ratio
169 | KRLM | ≤ 0.25
170 | NWKD | ≤ 0.25
171 | RQIA | ≤ 0.25
172 | HRFP | ≤ 0.25
173 | RWHE | ≤ 0.25
174 | FYTT | ≤ 0.25
175 | FDCE | ≤ 0.25
176 | HGEK | ≤ 0.25
177 | DHPA | ≤ 0.25
178 | LMPC | ≤ 0.25
179 | WLTL | 0.379
180 | TFCL | 5.44
181 | MWYY | ≤ 0.25
182 | PQTG | ≤ 0.25
183 | NMQP | ≤ 0.25
184 | RCVF | ≤ 0.25
185 | WLVP | ≤ 0.25
186 | TCGC | 23.2
187 | VWRT | ≤ 0.25
188 | LQFQ | 0.522
189 | VVYC | ≤ 0.25
190 | SERI | ≤ 0.25
191 | RIYC | ≤ 0.25
192 | RKIE | ≤ 0.25

Row | Variant | enrichment ratio
193 | DKTC | ≤ 0.25
194 | FYRL | ≤ 0.25
195 | MVAP | ≤ 0.25
196 | YDNQ | ≤ 0.25
197 | CTCF | ≤ 0.25
198 | TFFI | ≤ 0.25
199 | MQMG | ≤ 0.25
200 | NQNI | ≤ 0.25
201 | GKYT | ≤ 0.25
202 | TNVA | ≤ 0.25
203 | IIYV | ≤ 0.25
204 | KRDM | ≤ 0.25
205 | MFTW | ≤ 0.25
206 | MWVC | ≤ 0.25
207 | IWNL | ≤ 0.25
208 | FYQY | ≤ 0.25
209 | ISGE | ≤ 0.25
210 | HYFW | ≤ 0.25
211 | SQKD | ≤ 0.25
212 | FARV | ≤ 0.25
213 | ISSR | ≤ 0.25
214 | RMDG | ≤ 0.25
215 | THEE | ≤ 0.25
216 | TIQY | 7.51

Row | Variant | enrichment ratio
217 | QMCG | ≤ 0.25
218 | RMSK | ≤ 0.25
219 | GGCK | ≤ 0.25
220 | QKYI | ≤ 0.25
221 | GRMR | ≤ 0.25
222 | FSCI | 7.45
223 | SWEN | ≤ 0.25
224 | HQNN | ≤ 0.25
225 | LYPG | ≤ 0.25
226 | GFSE | ≤ 0.25
227 | HWVS | ≤ 0.25
228 | DVYP | ≤ 0.25
229 | GKEW | ≤ 0.25
230 | IFFW | ≤ 0.25
231 | FRFI | ≤ 0.25
232 | TFCF | ≤ 0.25
233 | VDPS | ≤ 0.25
234 | FGQY | ≤ 0.25
235 | DKLN | ≤ 0.25
236 | YWTK | ≤ 0.25
237 | FLCE | ≤ 0.25
238 | EALR | ≤ 0.25
239 | QKSV | ≤ 0.25
240 | NGWF | ≤ 0.25

Row | Variant | enrichment ratio
241 | VHKR | ≤ 0.25
242 | DFNG | ≤ 0.25
243 | TKKD | ≤ 0.25
244 | NFWR | ≤ 0.25
245 | QQWS | 9.54
246 | VFAE | ≤ 0.25
247 | MGWT | 4.51
248 | HLKG | ≤ 0.25
249 | DEFN | ≤ 0.25
250 | WTHW | ≤ 0.25
251 | KLHG | ≤ 0.25
252 | SAQD | ≤ 0.25
253 | EILY | ≤ 0.25
254 | FRPN | ≤ 0.25
255 | QALR | ≤ 0.25
256 | AEGD | 0.253
257 | HKLA | ≤ 0.25
258 | TQMC | 5.9
259 | LTAF | ≤ 0.25
260 | ANNW | ≤ 0.25
261 | WKNQ | ≤ 0.25
262 | SFDN | ≤ 0.25
263 | DCCN | ≤ 0.25
264 | DNDK | ≤ 0.25

Row | Variant | enrichment ratio
265 | IITS | ≤ 0.25
266 | GYCI | ≤ 0.25
267 | INVF | ≤ 0.25
268 | YKVP | ≤ 0.25
269 | FREY | ≤ 0.25
270 | EYEF | ≤ 0.25
271 | KLNY | ≤ 0.25
272 | MRFR | ≤ 0.25
273 | SVPI | 5.93
274 | TMEI | 17.7
275 | GQMG | ≤ 0.25
276 | MIYK | ≤ 0.25
277 | QHFK | ≤ 0.25
278 | PRCK | ≤ 0.25
279 | NYSW | ≤ 0.25
280 | WNAI | ≤ 0.25
281 | NEYM | ≤ 0.25
282 | YGGG | ≤ 0.25
283 | QFEY | ≤ 0.25
284 | PPSY | ≤ 0.25
285 | GEGR | ≤ 0.25
286 | IYIP | ≤ 0.25
287 | QIYP | ≤ 0.25
288 | GVGW | ≤ 0.25

Row | Variant | enrichment ratio
289 | VSGH | ≤ 0.25
290 | EHIS | ≤ 0.25
291 | YPFH | ≤ 0.25
292 | DSIW | ≤ 0.25
293 | DFDP | ≤ 0.25
294 | KDRP | ≤ 0.25
295 | RRCG | ≤ 0.25
296 | PMMY | ≤ 0.25
297 | AWTN | ≤ 0.25
298 | WHMK | ≤ 0.25
299 | IKMH | ≤ 0.25
300 | FPFK | ≤ 0.25
301 | RVFT | ≤ 0.25
302 | AQIF | 10.1
303 | KPYG | ≤ 0.25
304 | SVSY | 6.3
305 | AFHW | ≤ 0.25
306 | VHWT | ≤ 0.25
